Source: the supplement of paper PMC10126150
Values marked as one replicate rest on one cluster of the flow cell; about a third of the high ones do not repeat.

Each sequence was assayed on ATP (assay: switch fluorescence ratio, 500 uM ATP over buffer (Cy3 cluster intensity, sum of 5 cycles each) (fold (ratio)); higher = stronger signal-on switching upon ATP binding; sequences stand for … in TCGTCGGCAGCGTCAGATGTGTATAAGAGACAGTTTTTTTTTTTTTTTTTTTTTTTTT…TC). Details: aptamer strand: ATP DNA aptamer (quencher-CACCTGGGGGAGTATTGCGGAGGAAGG + anchor), 100 nM annealed; ATP concentration: 500 uM; one replicate.
Procedure, shortened: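 The quencher-labelled ATP aptamer, at 100 nM, was annealed to Cy3-labelled switching-strand clusters on a modified Illumina MiSeq flow-cell. The clusters were imaged in selection buffer, then after 15 min with 500 uM ATP at 22 °C, and this buffer/ATP cycle ran five times with NaOH stripping and re-annealing between runs. Per-cluster fluorescence ratios, summed target-cycle over summed buffer-cycle Cy3 intensity, were averaged per switch-domain sequence. Clusters outside 100-1000 RFU were excluded.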
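Further: ATP exposure 15 min at 22 °C before imaging.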

Row | Sequence | switch fluorescence ratio
1 | CAGTTGTGTA | 1.04
2 | AAAAAAAAG | 0.99
3 | TGGTTATCGA | 1.03
4 | GGTATACG | 0.959
5 | AAAGGCTAA | 0.947
6 | CCGTTCACGC | 1.28
7 | ATTAGGCGAG | 1
8 | CGGCTTTATC | 1.05
9 | GGAGCGTTGA | 1.08
10 | ATAGTTTCGT | 1.02
11 | ACCGACCGCC | 3.25
12 | AAAGCCTCCT | 1.1
13 | CAAGCCCTAT | 1
14 | AGAATTTGAA | 0.971
15 | AAAAAACTTG | 0.985
16 | CGAGAGAGCT | 1.03
17 | TACAGTGGGT | 0.997
18 | CGGATAAATA | 1.02
19 | GTATGGTGTC | 0.986
20 | TTCCATGCAT | 1.12
21 | ACAATAGCAG | 1.05
22 | ATTCTGTAGC | 1.58
23 | TAGTGCGTCA | 0.988
24 | TTATGTCAG | 0.983
25 | TTAGTCCATA | 0.992
26 | TGCGACGACG | 1.05

Row | Sequence | switch fluorescence ratio
27 | GCTTGCGTGG | 0.988
28 | GTTATGGGAC | 1.01
29 | CGCAGAAGGG | 0.983
30 | CATCACCA | 0.999
31 | GGGTCTCGGA | 1.01
32 | GCCCGCGCCC | 1.23
33 | AAAAGAAGTA | 1.02
34 | GACCTAGGGC | 0.998
35 | GGTGTGGGCC | 0.975
36 | TGTTTAGTTA | 0.961
37 | CCGGCCATGT | 1.05
38 | TCGGTTTTTG | 0.917
39 | CTTAGATAG | 0.999
40 | ACCTCCTACT | 1.35
41 | AAACGGGATG | 1
42 | CACTCAGAAG | 0.995
43 | CGCGTGGTCC | 1.03
44 | GTTGTAGCCC | 0.99
45 | CCGTGTCT | 1.04
46 | AAAACGGACT | 1.06
47 | CGGGAGGCCA | 0.953
48 | TCAAGATGGT | 0.997
49 | GGCGCGGTTC | 1.1
50 | TTTAAGCCGC | 1.05
51 | TAGCGCTGAG | 1.02
52 | TCTGATCATC | 1.06

Row | Sequence | switch fluorescence ratio
53 | TTAAGTAGC | 1.02
54 | GCTCAGTGCG | 1.03
55 | ATCAAAATAG | 1.08
56 | ACGGTTTGAA | 1
57 | ACGCGCCTCG | 0.987
58 | GGCCTTCTGG | 0.881
59 | GAGCGCGCAG | 1.09
60 | TGCAGCACCG | 1.01
61 | CTCACTAGCT | 1.06
62 | AACTCGTCGA | 1.04
63 | TGCTGATCAC | 1.01
64 | ATCAGGATT | 1.02
65 | TAGTGACCCA | 0.975
66 | CTTAATGATA | 0.973
67 | CTTGAGCGTC | 1.05
68 | GTAATTACAG | 1.01
69 | AGGAATACGC | 1.64
70 | CTCGGGCGGG | 1.01
71 | TATCCTAGAA | 1
72 | ACCCAATAAG | 1.04
73 | GCAGCCATTC | 1.78
74 | CGGTAGACGG | 1.01
75 | CCAATGAGAA | 0.996
76 | TAGACTCGAC | 1.02
77 | AGGAAAGTAT | 0.994
78 | GAAAAAGCCT | 1.37

Row | Sequence | switch fluorescence ratio
79 | CGATTATATG | 0.993
80 | CCAGGCCCAG | 1.07
81 | GACGCGCCAA | 0.999
82 | AGCAAGGCAT | 1.04
83 | TATCCGGGAA | 1.01
84 | TTACGTCTCT | 1.02
85 | TTCGGACGG | 1
86 | AGGCCTCTGA | 0.986
87 | TGAGGGACGT | 0.994
88 | AATGCTGAAA | 0.942
89 | GCCACTAATC | 1.04
90 | AAGGACTACT | 1.02
91 | GGTGTCTAG | 1.04
92 | TTTATCTAAC | 1.02
93 | ACGTACTCGT | 1.58
94 | TAGTCCGGTT | 1.03
95 | GGAAAGTCG | 0.999
96 | AGCGTTTTGA | 1.03
97 | AGGGGCCTCG | 1
98 | TACAGAGCGG | 1.03
99 | AGGAGTGCT | 1.01
100 | CAGTTTGAAA | 1.02
101 | TACTGAAAAT | 1.11
102 | TTTTAGTGG | 1.01
103 | ATGTCGGGGT | 1.04
104 | GTCTGAGGAC | 0.989

Row | Sequence | switch fluorescence ratio
105 | TCCGTTTGCC | 0.964
106 | CGAATATATC | 1.02
107 | GTCGAGACAG | 0.975
108 | TCTTCCTGAC | 2.15
109 | CATTTAGTC | 0.999
110 | CTATCGTATT | 0.994
111 | AGGGTCCACA | 0.964
112 | CCAAGGGGGT | 1.4
113 | TGAGAAATCT | 1.07
114 | AGCCATGGAT | 0.973
115 | CGTCAGAGCT | 0.968
116 | CTTCTCTCAA | 1.36
117 | TATGGAGTAT | 0.975
118 | ATTTGTTGGG | 1.01
119 | AATAAGAACG | 0.942
120 | TGAGGGCTA | 1.03
121 | GGATTCATGC | 0.98
122 | AAGTAGCGGT | 0.962
123 | AAAGGGCTTG | 0.973
124 | GGCGGAAGGA | 1.03
125 | GGTTTTCG | 1.01
126 | AAAGTAGTTT | 1.03
127 | GGGTAGGTTG | 0.992
128 | GGGAGGACCT | 1.06
129 | AGACTACCGG | 0.975
130 | CTACCTAGGC | 1.08

Row | Sequence | switch fluorescence ratio
131 | ACCCTCAGCT | 1.28
132 | GGGCTCAGCT | 0.993
133 | TAGAAATCAG | 1
134 | GCAACGAAAA | 1.06
135 | CCTCCTTTTT | 0.976
136 | TACGGGATCG | 0.995
137 | TCGGAGTGCC | 0.951
138 | AGATGCCCTA | 0.956
139 | ACATAGGAGA | 1.01
140 | AAGAGGGTG | 1.1
141 | GTGTTGTGTG | 0.995
142 | TACTGAGGTT | 0.986
143 | TACGGCGGTC | 0.996
144 | GAGAGGCAGA | 1.01
145 | TCGGTACCGA | 1
146 | CCAGGCGCTT | 1.15
147 | TGTGTAGACG | 0.883
148 | TTGTGGCTTG | 0.986
149 | TATCCAGATT | 0.976
150 | TCCTTAGTGG | 1.03
151 | CAAGATACGT | 1.1
152 | ACGGGTATCA | 0.995
153 | GTGACATTGG | 0.987
154 | AGCTAGCGGA | 0.962
155 | ATTCTTGAAG | 0.984
156 | TCTGGAGTTA | 1.24

Row | Sequence | switch fluorescence ratio
157 | CTTTTGAGGT | 0.997
158 | ACCGTCGGGC | 1.09
159 | TAAAGTAGGT | 0.988
160 | CCATTCTACT | 0.993
161 | TGGATGTCTT | 1.01
162 | GTAGGGGATG | 0.995
163 | TCTAAGGATC | 1.05
164 | TTAAAGCCTG | 1.08
165 | GCTCATTGAG | 1.01
166 | ATATGCTTCC | 2.05
167 | GCCTGAAATA | 1.02
168 | ATAATCCTG | 1.01
169 | TTGAGGATAA | 1.01
170 | CCCGAAATGG | 5.54
171 | AGGTGGAGCA | 0.944
172 | CTCCTACAAT | 3.67
173 | CGGGCTGCC | 1.01
174 | GAGGCGGGCG | 1.08
175 | GCTTCAGTCG | 1.03
176 | TTGCGTAT | 0.998
177 | GGTATAGTGA | 0.99
178 | CCCAATTTC | 1.62
179 | GGGCTCTATA | 1.06
180 | AAAAAGGATG | 1.01
181 | CACAAGGCAA | 0.98
182 | TCCTTGTTGA | 1.04

Row | Sequence | switch fluorescence ratio
183 | GGCTATTGGC | 1.01
184 | AAATGAGTCG | 0.987
185 | GATCGGGA | 0.994
186 | AACTGGGTTT | 1.02
187 | GTGCTTTGC | 1.07
188 | GGGAGAGTAG | 0.975
189 | TGAGCCGCGT | 1.02
190 | GTGGCGATAG | 1.08
191 | GGTTACAGTG | 0.969
192 | GCCATTCTG | 0.938
193 | CGTAATAGTA | 1.18
194 | AACACCCAGC | 1.16
195 | TTTAATGGCG | 1.8
196 | GCGGCACTCG | 1.04
197 | GGAAAAGATT | 1.02
198 | TAAGCCCGGC | 0.904
199 | GCTAGCCGCA | 1.08
200 | CGCATTAGGG | 1.23
201 | TTGCGATGTC | 0.982
